From paper PMC4336329 (PLoS ONE, 2015)
Out of some 310,000 compounds screened, about 14,000 (4.5%) showed an effect of 50% or more. Effects have a minus sign here. The list shows a part of the results.

target: human ether-à-go-go-related gene (hERG) potassium channel (human, UniProt Q12809); assay: primary screen, population patch clamp on CHO cells stably expressing hERG
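Also: peak tail current of the secondary pulse compared with the same well before compound.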

Chain of human ether-à-go-go-related gene (hERG) potassium channel (Q12809 whole entry, looked up): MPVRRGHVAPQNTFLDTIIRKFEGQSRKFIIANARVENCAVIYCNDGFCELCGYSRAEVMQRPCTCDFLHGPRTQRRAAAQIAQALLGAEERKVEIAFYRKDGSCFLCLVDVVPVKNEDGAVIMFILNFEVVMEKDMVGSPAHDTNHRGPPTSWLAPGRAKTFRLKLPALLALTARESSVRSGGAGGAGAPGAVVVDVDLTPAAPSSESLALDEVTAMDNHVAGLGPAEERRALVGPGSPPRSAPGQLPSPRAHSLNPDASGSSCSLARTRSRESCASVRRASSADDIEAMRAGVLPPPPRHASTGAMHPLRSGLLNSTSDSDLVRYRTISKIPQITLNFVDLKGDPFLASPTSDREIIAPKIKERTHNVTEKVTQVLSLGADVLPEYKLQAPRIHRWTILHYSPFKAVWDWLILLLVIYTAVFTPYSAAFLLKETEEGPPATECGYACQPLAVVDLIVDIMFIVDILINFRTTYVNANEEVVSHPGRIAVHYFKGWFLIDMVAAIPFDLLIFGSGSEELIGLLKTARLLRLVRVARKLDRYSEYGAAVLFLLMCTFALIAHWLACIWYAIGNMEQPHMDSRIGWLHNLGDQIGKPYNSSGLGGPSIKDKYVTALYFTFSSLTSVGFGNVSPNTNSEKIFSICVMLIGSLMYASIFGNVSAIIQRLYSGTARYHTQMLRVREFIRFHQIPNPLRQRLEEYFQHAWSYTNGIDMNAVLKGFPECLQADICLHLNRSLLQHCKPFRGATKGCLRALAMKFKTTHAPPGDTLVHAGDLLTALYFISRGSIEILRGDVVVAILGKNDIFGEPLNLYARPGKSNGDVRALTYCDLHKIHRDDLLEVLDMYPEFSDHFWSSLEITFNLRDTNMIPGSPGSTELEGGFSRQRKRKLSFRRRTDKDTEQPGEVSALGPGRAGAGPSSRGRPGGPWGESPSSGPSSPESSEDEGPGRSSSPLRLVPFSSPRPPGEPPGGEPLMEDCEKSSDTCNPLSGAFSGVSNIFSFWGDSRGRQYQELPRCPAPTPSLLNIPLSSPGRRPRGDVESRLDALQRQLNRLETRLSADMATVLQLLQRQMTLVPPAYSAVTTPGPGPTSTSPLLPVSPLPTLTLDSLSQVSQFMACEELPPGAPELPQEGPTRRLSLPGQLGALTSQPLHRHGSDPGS

SMILES | hERG current change (%, negative = inhibition) at 10uM [%]
O=C(COC(=O)c1ccccc1)NCC1CCCO1 (stereo not shown) | 3.16
Cc1cc(C)c(S(=O)(=O)N2CCN(C(=O)N3CCCCC3)CC2)c(C)c1 | -4.39
CCN(Cc1ccncc1)Cc1nc(-c2ccc(C(=O)OC)cc2)no1 | -13.5
CC(=O)N1CCC2(CC1)NC(=O)N(c1ccccc1)N2 | -2.09
CCCn1c(SCC(=O)Nc2ccccc2Oc2ccccc2)n[nH]c1=O | -17
Cc1cc(Nc2ccc3c(c2)OCCO3)c2cccc(C)c2n1.Cl | -40.7
O=C(COC(=O)C1(c2ccccc2)CC1)NNC(=O)c1ccccc1 | -2.39
Oc1ccccc1C1=NN(c2ccccc2)C(c2ccc(F)cc2)C1 (stereo not shown) | 9.68
Cc1ccc(CCNC(=O)C2CCC(=O)N(Cc3ccccc3F)C2)o1 (stereo not shown) | -10.9
O=C(Nc1ccon1)Nc1ccccc1C(F)(F)F | 12.6
Cn1c(CC(=O)Nc2ccccc2)nnc1SCCOc1ccccc1 | 2.08
Cc1cc(C)n(CCc2nc(-c3cc4ccccc4o3)cs2)n1 | 6.68
c1ccc(-c2cc3ccccc3nc2N2CCCC2)cc1 | 15.4
Cc1cccc2sc(NC(=O)C3CCN(S(=O)(=O)c4cc([N+](=O)[O-])ccc4Cl)CC3)nc12 | -2.42
CC1CC(=O)c2cnc(Nc3cccc(C(F)(F)F)c3)nc2C1 (stereo not shown) | 3.91
CN1CCN(S(=O)(=O)c2ccc(NC(=O)c3cccc(F)c3)cc2)CC1 | 1.26
CCOc1ccc(N(CC(=O)N2CCN(c3ccccc3F)CC2)S(=O)(=O)c2c(C)noc2C)cc1 | 11.4
CC(=O)NCCCCCCNC(C)=O | 3.44
Cn1c(=O)c(=O)n(C)c2cc(S(=O)(=O)N3CCN(Cc4ccccc4)CC3)ccc21 | -63.4
COc1ccc(-c2nc(CN3CCC(C(=O)N4CCOCC4)CC3)c(C)o2)c(OC)c1 | 7.46
CC(=O)c1cccc(NC(=O)c2ccc([N+](=O)[O-])o2)c1 | -28.7
O=C(NNC(=O)C1[C@H]2CCCC[C@@H]12)c1ccc(=O)oc1 (stereo partly shown) | 17.7

SMILES | hERG current change (%, negative = inhibition) at 10uM [%]
CCOc1cccc(/C(O)=C2/C(=O)C(=O)N(CCN3CCOCC3)C2c2cccnc2)c1 (stereo not shown) | 3.77
CC(=O)c1ccc(N(C(=O)CNC(=O)c2ccco2)C(C(=O)NCC2CCCO2)c2ccccc2)cc1 (stereo not shown) | -1.08
COc1ccc(CN(C)C(=O)c2cccc(C(=O)N(C)Cc3ccc(OC)cc3)c2)cc1 | -65.6
CC(=C\C(=O)O)/C(=C/c1ccc(C)o1)C(=O)O | -3.89
Cc1ccc(NC(=O)c2sc3nc4c(c(-c5ccco5)c3c2N)CCC4)cc1 | 11.6
CCOc1ccc(-c2[nH]nc3c2C(c2ccc(O)cc2)C(C#N)=C(N)O3)cc1 (stereo not shown) | 4.41
CCOc1ccccc1C(=O)NCC(=O)NC(C)c1ccc(-n2ccnc2)cc1 (stereo not shown) | -70.9
C[C@H](CCC(=O)NCC(=O)[O-])[C@H]1CC[C@H]2[C@@H]3[C@H](O)C[C@@H]4C[C@H](O)CC[C@]4(C)[C@H]3C[C@H](O)[C@]12C.O.[Na+] | -21.4
COc1ccccc1NC1=NC(CO)(CO)CS1 | 19.7
O=C(c1ccccc1NS(=O)(=O)c1cccs1)N1CCCC1 | 2.73
COCCn1c(C)cc(C(=O)CSc2nc3nc(C)cc(C)n3n2)c1C | -10.5
Cc1ccc(OCCOC(=O)Cn2nc(C)c([N+](=O)[O-])c2C)cc1 | 15.7
Cc1[nH]c(C)c(S(=O)(=O)N2CCN(c3ccc(Cl)cc3)CC2)c1C(=O)N1CCCC1 | -66.4
C#CCN(C#N)c1nc(NCC)nc(NC(C)C)n1 | -5.95
COCCN(C(=O)CSc1nc2ccccc2o1)c1c(N)n(Cc2ccccc2)c(=O)[nH]c1=O | -14.6
COc1ccc(NC(=O)[C@@]2(CC(=O)O)CC(/C=C/c3ccccc3)=NO2)cc1 | 34
COc1cccc(C2c3c(oc4ccccc4c3=O)C(=O)N2c2ccccn2)c1 (stereo not shown) | -2.62
CCCN1CCN(C2CCCCC2NS(=O)(=O)c2ccccc2)CC1 (stereo not shown) | -44.7
CC(C)(C)N1NC2(CCCCC2)NC1=S | 9.17
Cc1cc(C)n(-c2ccc(C(=O)OC(C)C)cc2)n1 | -8.17
CC(C)C[C@H](NC(=O)c1nc[nH]c1C(=O)N1CCC(C)CC1)C(=O)OCc1ccccc1 | 8.25
